# Out of some 420,000 compounds screened, about 50,000 (12%) were called active. This list was built around the results that the source calls inconclusive (neither active nor inactive); the mix of calls is not that of the screen. Calls follow the shape of the dose curve; as a rule, active = well fitted inhibition curve with a large enough effect; inconclusive = small, poorly fitted or top-dose-only effect; inactive = flat fitted curve, though single readings scatter. Potencies of inconclusive entries are left out as doubtful fits.
# Assay: qHTS for Inhibitors of human tyrosyl-DNA phosphodiesterase 1 (TDP1): qHTS in cells in presence of CPT; also: nearly all actives have a fitted effect of over 55% in size
# Settings: chicken DT40 Tdp1-/-;hTDP1 cells + 20 nM CPT, ATP luminescence, 48 h; activity change, negative = growth inhibition: at 46.2 µM (top of the series) unless noted
# Outline: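 Chicken DT40 Tdp1-/- cells stably complemented with human TDP1 were seeded at 400 cells/well in medium containing 20 nM camptothecin, exposed to pin-transferred compounds, and grown at 37 °C for at least 48 hr. Viability was read as ATP luminescence.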
# % is scaled to controls: 0 for no effect and ±100 for the full control effect; potency is read from the fitted curve at half-maximal effect; tags tell the direction and shape of the fitted curve.
Structure (SMILES),Potency,"activity change, negative = growth inhibition"
COc1cccc(N2CC(C(=O)Nc3ccc(C(=O)OC(C)C)cc3)CC2=O)c1 (configuration not stated),"inconclusive [inhibitor, single point]",–
CCOC(=O)N1CCN(S(=O)(=O)c2ccc(C(=O)N(CCCN(C)C)c3nc4c(C)c(C)ccc4s3)cc2)CC1,"inconclusive [inhibitor, single point]",–
C=CCNC(=O)/C(C#N)=C/c1c(N2CCN(c3ccccc3)CC2)nc2c(C)cccn2c1=O,–,inactive: 5.85%
COc1ccccc1NC(=O)C1=C(C)Nc2nc3ccccc3n2C1c1ccccc1Cl (configuration not stated),active: 14.6 µM,–
CCOc1cc(C2C(C#N)=C(N)OC(C)=C2C(C)=O)cc(Br)c1O (configuration not stated),–,inactive: -8.55%
Nc1ccc(CSc2ccc(Cl)cc2)c(Cl)c1,–,inactive: -8.81%
COc1ccc2ccc(=O)oc2c1CC(O)C(C)(C)O (configuration not stated),–,inactive: 1.87%
COc1ccccc1-c1ocnc1C(=O)N1CCN(C(=O)C(c2ccccc2)c2ccccc2)CC1,"inconclusive [inhibitor, full curve, poor fit]",–
COCCN1Cc2cccc(C(=O)Nc3ccc(-c4nc5ccccc5[nH]4)cc3)c2C1=O,–,inactive: -23.1%
COc1ccc([C@H]2CC(=O)C=C(c3cccc(Br)c3)C2)cc1OC,"inconclusive [inhibitor, single point]",–
NS(=O)(=O)c1ccc(NC(=S)NC2CCCC2)cc1,–,inactive: -5.54%
O=C(Cn1cc(C(=O)c2ccco2)c2ccccc21)Nc1ccccc1,active: 10.3 µM,–
O=C(Cn1cccc1C(=O)c1ccccc1)NCCc1ccc(Cl)cc1,"inconclusive [inhibitor, single point]",–
CCOc1ccc(N2CC(C)Cn3c2nc2c3c(=O)n(Cc3c(F)cccc3Cl)c(=O)n2C)cc1 (configuration not stated),"inconclusive [inhibitor, single point]",–
CCOc1ccc(NC(=O)c2ccc(F)c(S(=O)(=O)N(Cc3ccc(C(=O)OC)cc3)Cc3ccc(OC)c(OC)c3)c2)cc1,–,inactive: -24.4%
CCCCCCC1(C)NC(c2ccc3c(c2)OCO3)=CC(c2ccccc2O)N1 (configuration not stated),"inconclusive [inhibitor, single point]",–
Cc1csc(NC(=O)CSc2nc(C)nc3c2c(=O)n(C)c(=O)n3C)n1,"inconclusive [inhibitor, single point]",–
O=C(NCC1(O)CCCCC1)C1CCC(=O)N(CCc2ccccc2)C1 (configuration not stated),–,inactive: 0.423%
COCCNc1nc(-c2ccccc2CN(C)C)nc2ccccc12,"inconclusive [inhibitor, single point]",–
O=C(Nc1ccc(F)cc1F)N1CCN(c2ncccn2)CC1,–,inactive: 3.7%
O=C(NCC(c1ccco1)N1CCCC1)c1ccccc1F (configuration not stated),–,inactive: -2.59%
COc1cccc(CN2C(=O)C(C)N(C(=O)c3ccccc3)c3ccccc32)c1 (configuration not stated),active: 13 µM,–
O=C(CSc1ncc(-c2ccccc2)[nH]1)Nc1cccc(Br)c1,active: 23.1 µM,–
NC(N)=Nc1nc(CSCC/C(N)=N/S(N)(=O)=O)cs1,"inconclusive [inhibitor, single point]",–

Structure (SMILES),Potency,"activity change, negative = growth inhibition"
COc1cccc(CC2(CO)CCCN(Cc3ccc(-c4ccco4)cc3)C2)c1 (configuration not stated),active: 23.1 µM,–
COc1cc(-c2cc(NC=O)c3ncc(-c4ccccc4)n3c2)cc(OC)c1OC,"inconclusive [inhibitor, partial curve, poor fit]",–
O=C(Nc1nc2c(s1)CN(Cc1ccccc1)CC2)C1CCCC1,"inconclusive [inhibitor, single point]",–
Cc1cc([N+](=O)[O-])ccc1NC(=O)c1csc(C)c1C,"inconclusive [inhibitor, partial curve, poor fit]",–
CS(=O)(=O)N1CCC2(CCCN(C(=O)Nc3cccc(F)c3)C2)CC1,–,inactive: 14.8%
CC(CCc1ccc(O)cc1)NCc1ccc(Br)cc1 (configuration not stated),active: 11.6 µM,–
CC(=O)c1cccc(NC(=O)CN2CCN(Cc3ccccc3)CC2)c1,–,inactive: -23.3%
CC(=O)c1ccc(NCC2COc3ccccc3O2)c([N+](=O)[O-])c1 (configuration not stated),"inconclusive [inhibitor, single point]",–
CCOCCc1nnc(NC(=O)C(=O)c2cc(C)n(-c3ccc(Cl)cc3)c2C)s1,"inconclusive [inhibitor, single point]",–
CC(C)NC(=O)C1CCN(C2CCN(Cc3nc4ccccc4s3)CC2)CC1,–,inactive: 1.11%
COc1ccccc1-n1c(SCC(=O)Nc2cc(C)on2)nc2c(c1=O)SCC2,"inconclusive [inhibitor, partial curve]",–
COc1ccc(CC(=O)Nc2nc(-c3cc(OC)ccc3OC)cs2)cc1,"inconclusive [inhibitor, single point]",–
CCOc1c(Br)cc(C2CC(=O)Nc3cc(OC)c(OC)cc32)cc1OC (configuration not stated),"inconclusive [inhibitor, partial curve]",–
Cc1cccc(C)c1OCCCCn1cnc2ccccc2c1=O,–,inconclusive: -31.4% [inhibitor]
COc1cccc(-c2nn(-c3ccccc3)cc2C(=O)n2nnc3ccccc32)c1,"inconclusive [inhibitor, single point]",–
Cc1ccc2[nH]c(=O)c(CN(Cc3ccccc3)C(=S)NCCCN(C)C)cc2c1,"inconclusive [inhibitor, single point]",–
N#C/C(=C/c1ccc2c(c1)OCO2)C(=O)Nc1ccc(O)cc1,active: 7.31 µM,–
CCC(C)(C)n1nnnc1CN1CCC(NC(=O)c2ccc(Br)cc2)CC1,"inconclusive [inhibitor, partial curve]",–
COC(=O)CN1C(C(=O)c2ccccc2)=C(OC(=O)c2ccc(F)cc2)c2ccccc2S1(=O)=O,active: 16.4 µM,–
CCn1c(SCC(=O)Nc2ccc(C)cc2)nnc1-c1ccc(O)cc1,–,inconclusive: -28.9% [inhibitor]
COc1ccc(Cl)cc1NC(=O)CN(C)C(=O)Cc1n[nH]c(=O)c2ccccc12,"inconclusive [inhibitor, partial curve]",–
COc1cccc(NC(=O)c2ccc(CN3CCN(c4ccccc4)CC3)cc2)c1,"inconclusive [inhibitor, single point]",–
Cc1cc(-c2nn(-c3ccccc3F)cc2CN2CCCC(O)C2)c(C)s1 (configuration not stated),"inconclusive [inhibitor, single point]",–
Cc1nn(Cc2ccccc2)c2c1C(c1cccc(Cl)c1)C(C#N)=C(N)O2 (configuration not stated),active: 23.1 µM,–

Structure (SMILES),Potency,"activity change, negative = growth inhibition"
CCOC(=O)CSc1nc2sc(C)c(C)c2c(=O)[nH]1,"inconclusive [inhibitor, single point]",–
CCCN(CCC)C(=O)COc1cc(=O)n(CC)c2ccccc12,"inconclusive [inhibitor, single point]",–
CN(C(=O)CSc1nnc(C2CC2)n1C1CC1)C1(C#N)CCCCC1,–,inactive: -1.77%
COc1ncc(-c2ccc3c(c2)S(=O)(=O)c2cccc(C(=O)NCc4ccco4)c2C3=O)cn1,"inconclusive [inhibitor, single point]",–
CC1CCCCN1C(=O)c1ccc2c(c1)N(Cc1ccc(F)cc1)C(=O)c1ccccc1S2(=O)=O (configuration not stated),"inconclusive [inhibitor, single point]",–
CCOC(=O)C1CCCN(C(=O)c2cc(-c3ccncc3)nc3ccccc23)C1 (configuration not stated),"inconclusive [inhibitor, single point]",–
COc1cccc(-c2nc3c(C#N)c[nH]n3c2NC2CCCC2)c1OC,"inconclusive [inhibitor, single point]",–
COc1ccccc1Cn1c(=O)[nH]c2cccnc21,–,inactive: -26.1%
CC1CCCN(C(=O)COc2ccc(NC(=O)c3cccs3)cc2)C1 (configuration not stated),–,inactive: -8.9%
O=C(CN1C(=O)C2C3C=CC(C3)C2C1=O)Nc1ccc(S(=O)(=O)Nc2nccs2)cc1 (configuration not stated),–,inactive: 3.63%
CCOc1ccccc1C(=O)Nc1c[nH]c(=O)[nH]c1=O,"inconclusive [inhibitor, single point]",–
CN(NC(=O)c1ccccc1F)c1nc(C(F)(F)F)nc2ccccc12,active: 0.206 µM,–
COc1cc2nc(NC(=O)c3ccc(S(=O)(=O)N4CCc5ccccc54)cc3)sc2cc1OC,active: 20.6 µM,–
Cc1cc(C)cc(C(O)c2ncc(-c3ccccc3C(F)(F)F)[nH]2)c1 (configuration not stated),"inconclusive [inhibitor, single point]",–
O=C(Oc1cccc2cccnc12)c1cccc([N+](=O)[O-])c1,active: 0.92 µM,–
CC(=O)N1c2ccc(S(=O)(=O)N3CCC(C(=O)N4CCCCC4)CC3)cc2CC1C (configuration not stated),"inconclusive [inhibitor, partial curve]",–
COCc1cc(C)nc2sc3c(=O)n(-c4ccccc4C(F)(F)F)nnc3c12,"inconclusive [inhibitor, single point]",–
CCOC(=O)CSc1nc2ccc(Nc3nc(N4CCOCC4)nc(N4CCOCC4)n3)cc2s1,"inconclusive [inhibitor, single point]",–
CCCN1C/C(=C/c2ccc3c(c2)OCO3)C(=O)/C(=C/c2ccc3c(c2)OCO3)C1,active: 14.6 µM,–
COc1cc(OC)cc(C(=O)NNC(=O)c2ccccc2Br)c1,–,inactive: 10.9%
CCOc1ccc(NC(=S)Nc2ccc(OCc3ccccc3)cc2)cc1,"inconclusive [inhibitor, partial curve]",–
Cc1ccc(C)c(CSc2nnc3[nH]c(=O)cc(-c4ccccc4)n23)c1,–,inactive: -2.82%
Cc1nc2ccccc2nc1OCC(=O)NCc1ccc2c(c1)OCO2,active: 14.6 µM,–
Cc1c(C(=O)N2CCCCC2)oc2ccc(S(=O)(=O)N3CC(C)CC(C)C3)cc12 (configuration not stated),active: 18.4 µM,–
